# Reference: the supplement of paper PMC8728848
# Some of the results follow.
# B1: Siglec-9 (Homo sapiens), Q9Y336 (protein)
# chain: MLLLLLPLLWGRERAEGQTSKLLTMQSSVTVQEGLCVHVPCSFSYPSHGWIYPGPVVHGYWFREGANTDQDAPVATNNPARAVWEETRDRFHLLGDPHTKNCTLSIRDARRSDAGRYFFRMEKGSIKWNYKHHRLSVNVTALTHRPNILIPGTLESGCPQNLTCSVPWACEQGTPPMISWIGTSVSPLDPSTTRSSVLTLIPQPQDHGTSLTCQVTFPGASVTTNKTVHLNVSYPPQNLTMTVFQGDGTVSTVLGNGSSLSLPEGQSLRLVCAVDAVDSNPPARLSLSWRGLTLCPSQPSNPGVLELPWVHLRDAAEFTCRAQNPLGSQQVYLNVSLQSKATSGVTQGVVGGAGATALVFLSFCVIFVVVRSCRKKSARPAAGVGDTGIEDANAVRGSASQGPLTEPWAEDSPPDQPPPASARSSVGEGELQYASLSFQMVKPWDSRGQEATDTEYSEIKIHR
# What was measured:
# Assay in all cases: glycan array binding signal (z-score within array); higher = stronger binding
# Details in all cases: glycan notation: IUPAC condensed, linker removed
# [1] = biological target: Neu5Ac(a2-6)Gal(b1-4)GlcNAc(b1-2)Man(a1-3)[GlcNAc(b1-4)][Neu5Ac(a2-6)Gal(b1-4)GlcNAc(b1-2)Man(a1-6)]Man(b1-4)GlcNAc(b1-4)GlcNAc
# Outline: (§1)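 Glycan array data came from 3228 arrays in the Consortium for Functional Glycomics database, and only arrays with an available protein sequence were kept. Glycan names were put into IUPAC-condensed notation, and columns mapping to the same glycan were averaged. The binding signal is a within-array Z-score, averaged across arrays of one protein sequence run at different concentrations or buffers and across linkers. A negative Z-score can be read as non-binding.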
# [2] = biological target: Neu5Ac(a2-6)Gal(b1-4)GlcNAc(b1-2)Man(a1-3)[Man(a1-6)]Man(b1-4)GlcNAc(b1-4)GlcNAc
# Outline: as §1
# [3] = biological target: Neu5Ac(a2-6)Gal(b1-4)GlcNAc(b1-2)Man(a1-3)[Neu5Ac(a2-3)Gal(b1-4)GlcNAc(b1-2)Man(a1-6)]Man(b1-4)GlcNAc(b1-4)GlcNAc
# Outline: as §1
# [4] = biological target: Neu5Ac(a2-6)Gal(b1-4)GlcNAc(b1-2)Man(a1-3)[Neu5Ac(a2-6)Gal(b1-4)GlcNAc(b1-2)Man(a1-6)]Man(b1-4)GlcNAc(b1-4)GlcNAc
# Outline: as §1
# [5] = biological target: Neu5Ac(a2-6)Gal(b1-4)GlcNAc(b1-2)Man(a1-3)[Neu5Ac(a2-6)Gal(b1-4)GlcNAc(b1-2)Man(a1-6)]Man(b1-4)GlcNAc(b1-4)[Fuc(a1-6)]GlcNAc
# Outline: as §1
# [6] = biological target: Neu5Ac(a2-6)Gal(b1-4)GlcNAc(b1-2)Man(a1-6)Man(b1-4)GlcNAc(b1-4)GlcNAc
# Outline: as §1
# [7] = biological target: Neu5Ac(a2-6)Gal(b1-4)GlcNAc(b1-2)Man(a1-6)[Gal(b1-4)GlcNAc(b1-2)Man(a1-3)]Man(b1-4)GlcNAc(b1-4)GlcNAc
# Outline: as §1
# [8] = biological target: Neu5Ac(a2-6)Gal(b1-4)GlcNAc(b1-2)Man(a1-6)[GlcNAc(b1-2)Man(a1-3)]Man(b1-4)GlcNAc(b1-4)GlcNAc
# Outline: as §1
# [9] = biological target: Neu5Ac(a2-6)Gal(b1-4)GlcNAc(b1-2)Man(a1-6)[Man(a1-3)]Man(b1-4)GlcNAc(b1-4)GlcNAc
# Outline: as §1
# [10] = biological target: Neu5Ac(a2-6)Gal(b1-4)GlcNAc(b1-2)[Neu5Ac(a2-6)Gal(b1-4)GlcNAc(b1-4)]Man(a1-3)[GlcNAc(b1-4)][Neu5Ac(a2-6)Gal(b1-4)GlcNAc(b1-2)[Neu5Ac(a2-6)Gal(b1-4)GlcNAc(b1-6)]Man(a1-6)]Man(b1-4)GlcNAc(b1-4)GlcNAc
# Outline: as §1
# [11] = biological target: Neu5Ac(a2-6)Gal(b1-4)GlcNAc(b1-2)[Neu5Ac(a2-6)Gal(b1-4)GlcNAc(b1-4)]Man(a1-3)[GlcNAc(b1-4)][Neu5Ac(a2-6)Gal(b1-4)GlcNAc(b1-4)Man(a1-6)]Man(b1-4)GlcNAc(b1-4)GlcNAc
# Outline: as §1
# [12] = biological target: Neu5Ac(a2-6)Gal(b1-4)GlcNAc(b1-2)[Neu5Ac(a2-6)Gal(b1-4)GlcNAc(b1-6)]Man(a1-6)[Neu5Ac(a2-6)Gal(b1-4)GlcNAc(b1-2)Man(a1-3)][GlcNAc(b1-4)]Man(b1-4)GlcNAc(b1-4)GlcNAc
# Outline: as §1
# [13] = biological target: Neu5Ac(a2-6)Gal(b1-4)GlcNAc(b1-3)Gal(b1-3)GlcNAc
# Outline: as §1
# [14] = biological target: Neu5Ac(a2-6)Gal(b1-4)GlcNAc(b1-3)Gal(b1-4)GlcNAc
# Outline: as §1
# [15] = biological target: Neu5Ac(a2-6)Gal(b1-4)GlcNAc(b1-3)Gal(b1-4)GlcNAc(b1-2)Man(a1-3)[Neu5Ac(a2-6)Gal(b1-4)GlcNAc(b1-3)Gal(b1-4)GlcNAc(b1-2)Man(a1-6)]GalNAc
# Outline: as §1
# [16] = biological target: Neu5Ac(a2-6)Gal(b1-4)GlcNAc(b1-3)Gal(b1-4)GlcNAc(b1-3)Gal(b1-4)GlcNAc
# Outline: as §1
# [17] = biological target: Neu5Ac(a2-6)Gal(b1-4)GlcNAc(b1-3)Gal(b1-4)GlcNAc(b1-3)Gal(b1-4)GlcNAc(b1-2)Man(a1-3)[Neu5Ac(a2-6)Gal(b1-4)GlcNAc(b1-3)Gal(b1-4)GlcNAc(b1-3)Gal(b1-4)GlcNAc(b1-2)Man(a1-6)]GalNAc
# Outline: as §1
# [18] = biological target: Neu5Ac(a2-6)Gal(b1-4)GlcNAc(b1-3)Gal(b1-4)GlcNAc(b1-3)GalNAc
# Outline: as §1
# [19] = biological target: Neu5Ac(a2-6)Gal(b1-4)GlcNAc(b1-3)Gal(b1-4)GlcNAc(b1-3)[Neu5Ac(a2-6)Gal(b1-4)GlcNAc(b1-3)Gal(b1-4)GlcNAc(b1-6)]GalNAc
# Outline: as §1
# [20] = biological target: Neu5Ac(a2-6)Gal(b1-4)GlcNAc(b1-3)Gal(b1-4)GlcNAc(b1-6)[Gal(b1-3)]GalNAc
# Outline: as §1
# [21] = biological target: Neu5Ac(a2-6)Gal(b1-4)GlcNAc(b1-3)Gal(b1-4)[Fuc(a1-3)]GlcNAc(b1-3)Gal(b1-4)[Fuc(a1-3)]GlcNAc
# Outline: as §1
# [22] = biological target: Neu5Ac(a2-6)Gal(b1-4)GlcNAc(b1-3)GalNAc
# Outline: as §1
# [23] = biological target: Neu5Ac(a2-6)Gal(b1-4)GlcNAc(b1-3)[Neu5Ac(a2-6)Gal(b1-4)GlcNAc(b1-6)]GalNAc
# Outline: as §1
# [24] = biological target: Neu5Ac(a2-6)Gal(b1-4)GlcNAc(b1-6)GalNAc
# Outline: as §1
# [25] = biological target: Neu5Ac(a2-6)Gal(b1-4)GlcNAc(b1-6)[Gal(b1-3)GlcNAc(b1-3)]Gal(b1-4)Glc
# Outline: as §1
# [26] = biological target: Neu5Ac(a2-6)Gal(b1-4)GlcNAc(b1-6)[Gal(b1-3)]GalNAc
# Outline: as §1
# [27] = biological target: Neu5Ac(a2-6)Gal(b1-4)GlcNAc6S
# Outline: as §1
# Neu5Ac(a2-6)GalNAc = biological target: Neu5Ac(a2-6)GalNAc
# Outline: as §1
# [28] = biological target: Neu5Ac(a2-6)GalNAc(b1-4)GlcNAc
# Outline: as §1
# [29] = biological target: Neu5Ac(a2-6)GalNAc(b1-4)GlcNAc6S
# Outline: as §1
# [30] = biological target: Neu5Ac(a2-6)GlcNAc(b1-4)GlcNAc
# Outline: as §1
binder,measurement,setting,value
B1,glycan array binding signal (z-score),[1],-0.121
same,glycan array binding signal (z-score),[2],0.105
same,glycan array binding signal (z-score),[3],0.17
same,glycan array binding signal (z-score),[4],-0.234
same,glycan array binding signal (z-score),[5],0.381
same,glycan array binding signal (z-score),[6],-0.092
same,glycan array binding signal (z-score),[7],-0.105
same,glycan array binding signal (z-score),[8],-0.106
same,glycan array binding signal (z-score),[9],-0.246
same,glycan array binding signal (z-score),[10],-0.223
same,glycan array binding signal (z-score),[11],-0.219
same,glycan array binding signal (z-score),[12],-0.075
same,glycan array binding signal (z-score),[13],-0.238
same,glycan array binding signal (z-score),[14],-0.042
same,glycan array binding signal (z-score),[15],-0.262
same,glycan array binding signal (z-score),[16],-0.238
same,glycan array binding signal (z-score),[17],0.878
same,glycan array binding signal (z-score),[18],-0.136
same,glycan array binding signal (z-score),[19],0.248
same,glycan array binding signal (z-score),[20],0.086
same,glycan array binding signal (z-score),[21],-0.128
same,glycan array binding signal (z-score),[22],0.157
same,glycan array binding signal (z-score),[23],0.122
same,glycan array binding signal (z-score),[24],0.355
same,glycan array binding signal (z-score),[25],-0.081
same,glycan array binding signal (z-score),[26],-0.067
same,glycan array binding signal (z-score),[27],1.58
same,glycan array binding signal (z-score),Neu5Ac(a2-6)GalNAc,-0.041
same,glycan array binding signal (z-score),[28],0.195
same,glycan array binding signal (z-score),[29],0.164
same,glycan array binding signal (z-score),[30],-0.046
